About 360 (36%) of roughly 1,000 compounds were called active.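 How the source made its calls: active means Fitted curve of melting temperature shift crosses the 1.0 threshold at or below the sample's highest valid tested concentration; inconclusive means Flat fit with activity 30 to 70, or invalid fit; inactive means Opposite direction, flat within 30, or no crossing.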 This part holds few or none of the hits.

The assay deals with Fibroblast growth factor 22 (Homo sapiens) (UniProt Q9HCT0). The assay is described as follows: FGF22 ligand-induced thermal stabilization – biophysical, thermal shift, cherry-pick, FGF22 synaptogenesis inhibitor project, dose response (AID 687022). Further: reference of the scale not given here. To be noted: recombinant FGF22 thermal shift, SYPRO orange melting; at 38 µM (top of the series) unless noted.
Sequence of UniProt Q9HCT0 (Q9HCT0 whole entry, looked up): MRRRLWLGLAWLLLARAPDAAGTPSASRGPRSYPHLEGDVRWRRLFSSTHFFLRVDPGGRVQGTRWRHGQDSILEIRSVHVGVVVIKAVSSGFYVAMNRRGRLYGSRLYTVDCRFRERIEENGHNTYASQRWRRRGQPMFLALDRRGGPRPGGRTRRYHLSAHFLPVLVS
Turning to `COc1ccc(Br)cc1S(=O)(=O)Nc1ncccc1C`, the Tm shift activity is inactive: -0.096%.
The figure for `CCC(=O)N1CC2(CCN(Cc3nccs3)CC2)c2c(n(C)c3cc(OC)ccc23)[C@@H]1CO` is inactive: -0.152%.
The figure for `C[C@@H]1CN([C@@H](C)CO)C(=O)c2cccc(NS(=O)(=O)c3cn(C)cn3)c2O[C@@H]1CN(C)S(=O)(=O)c1ccc(Cl)cc1` is inactive: 0.326%; for `O=C(NN1C(=O)C2C3C=CC(O3)C2C1=O)c1ccccc1` (centres undefined) it is inactive: -0.131%.
The figure for `CO[C@@H]1CN(C)C(=O)c2cc(NC(=O)C3CCCC3)ccc2OC[C@H](C)N(CCC(F)(F)F)C[C@H]1C` is inactive: -0.068%.
As for `CCOC(=O)[C@]12CCCC=C1N(Cc1ccccc1)C(=O)[C@H](CC(=O)NCC1CCCCC1)C2`, the Tm shift activity was inactive: 0.402%.
As for `O=C(C[C@@H]1CC[C@@H]2[C@H](COC[C@@H](O)CN2C(=O)Nc2cccc(Cl)c2)O1)NCC1CCCCC1`, the Tm shift activity was inactive: 0.183%.
The value for `CCCN(C)C[C@H]1Oc2cc(C#Cc3cccnc3)ccc2S(=O)(=O)N([C@H](C)CO)C[C@@H]1C` was inactive: 0.518%.
The figure for `CCNC(=O)C1(C)CCCN(C(=O)C2(c3ccc(Cl)cc3)CCCC2)C1` (centres undefined) is inactive: -0.084%; for `C[C@@H]1CN([C@H](C)CO)S(=O)(=O)c2ccc(C#CCN(C)C)cc2O[C@@H]1CN(C)Cc1ccccc1F` it is inactive: 0.118%; for `COc1cccc(NC(=O)OCCN2CCN(Cc3ccccc3)CCC2=O)c1` it is inactive: 0.08%.
Turning to `Cc1ccc(S(=O)(=O)c2nnn(-c3cccc(F)c3)c2N)cc1`, the Tm shift activity is inactive: 0.058%.
The figure for `C[C@H]1CCCCO[C@H](CN(C)Cc2ccncc2)[C@@H](C)CN([C@@H](C)CO)C(=O)c2cc(NC(=O)c3ccncc3)ccc2O1` is inactive: 0.186%.
Turning to `O=C(CCc1ccc(S(=O)(=O)N2CCOCC2)cc1)Nc1ccccc1F`, the Tm shift activity is inactive: -0.061%.
As to `CNC[C@H]1Oc2ccc(NC(=O)C3CCCCC3)cc2C(=O)N([C@@H](C)CO)C[C@H]1C`, the Tm shift activity is inactive: -0.162% [at 42 µM].
The figure for `CO[C@H]1CN(C)C(=O)c2cc(NC(=O)CC(F)(F)F)ccc2OC[C@@H](C)N(C(C)=O)C[C@H]1C` is inactive: -0.187% [at 42 µM]; for `c1ccc(-c2cc3nc(NCc4ccc5c(c4)OCO5)ccn3n2)cc1` it is inactive: -2.87%.
The figure for `COc1ccccc1NC(=O)N1[C@H](C#N)[C@H](c2ccccc2)[C@H]1CO` is inactive: -0.014% [at 42 µM].
As for `C[C@H]1CN([C@@H](C)CO)C(=O)c2cc(NC(=O)CCN3CCOCC3)ccc2O[C@H]1CN(C)C(=O)NC1CCCCC1`, the Tm shift activity was inactive: 0.046% [at 42 µM].
On to `O=C(OCC(=O)c1ccc(Cl)s1)c1ccc2ccccc2n1`, for which the Tm shift activity is inactive: 0.073%.
The value for `O=C(C1CCCC1)N1CC2(C1)[C@H](c1ccccc1)[C@@H](CO)N2CC1CC1` was inactive: -0.131% [at 42 µM]; that for `Cc1nn(CCOc2ccccc2Cl)c(C)c1[N+](=O)[O-]` was inactive: 0.301%.
As for `CCCCN(C(=O)c1ccc2c(c1)OCCO2)c1c(N)n(CCCC)c(=O)[nH]c1=O`, the Tm shift activity is inactive: 0.081%.
Consider `N#C[C@H]1[C@@H](c2ccc(C#CCC3CCCC3)cc2)[C@H](CO)N1C(=O)CN1CCOCC1`, for which the Tm shift activity is inactive: -0.608% [at 42 µM].
The figure for `O=C(N[C@@H]1C=C[C@H](CC(=O)N2CCCCC2)O[C@H]1CO)c1cccc(F)c1` is inactive: 0.229%; for `Cc1noc(C)c1S(=O)(=O)Nc1ccc2c(c1)CC(=O)N([C@@H](C)CO)C[C@@H](C)[C@@H](CN(C)Cc1ccc(Cl)c(Cl)c1)O2` it is inactive: -1.12% [at 42 µM].
Turning to `C[C@@H]1CN([C@@H](C)CO)S(=O)(=O)c2ccc(C3=CCCC3)cc2O[C@@H]1CN(C)C(=O)C1CCCCC1`, the Tm shift activity was inactive: 0.63%.
Consider `O=C(Cn1cc(COc2ccc(Br)cc2[N+](=O)[O-])nn1)c1ccc(O)cc1`, for which the Tm shift activity was inactive: 0.225%.
Regarding `CN(c1ccccc1)S(=O)(=O)c1cccc(NC(=O)c2ccc3ncsc3c2)c1`, the Tm shift activity is inactive: -0.176%.
As for `Cc1cccc(Cn2ncc(Cl)c(Cl)c2=O)c1`, the Tm shift activity is inactive: -0.187%.
Regarding `C[C@H](CO)N1C[C@H](C)[C@H](CN(C)C)Oc2ccc(NC(=O)NC3CCCCC3)cc2CC1=O`, the Tm shift activity was inactive: -0.011% [at 42 µM].
The value for `O=C(NCC[C@H]1CC[C@@H](NC(=O)C2CCOCC2)[C@H](CO)O1)Nc1ccc(Cl)cc1` was inactive: 0.22% [at 42 µM].
The figure for `COCC(=O)NC[C@H]1[C@H](c2ccc(C3=CCCC3)cc2)[C@@H](CO)N1C(C)=O` is inactive: -0.131% [at 42 µM]; for `O=C(C1CCOCC1)N1CC2(C1)[C@@H](c1ccccc1)[C@@H](CO)N2Cc1ccccc1F` it is inactive: -0.177%.
The value for `O=C(CCN1CCCCC1)N[C@@H]1CC[C@H](CCNS(=O)(=O)c2ccc(F)cc2)O[C@H]1CO` was inactive: -0.166%; that for `C=CCN(C(=O)c1csnn1)C(C(=O)NC1CCCCC1)c1ccc(Cl)cc1` (centres undefined) was inactive: -0.164%.
As for `CCCn1c(CCC(=O)O)nc2cc(S(=O)(=O)N3CCCC3)ccc21`, the Tm shift activity is inactive: -0.298%.
The figure for `C[C@H](CO)N1C[C@H](C)[C@@H](CN(C)S(=O)(=O)c2ccccc2)Oc2c(NC(=O)C3CC3)cccc2C1=O` is inactive: -0.058%.
Regarding `C[C@H]1CN([C@@H](C)CO)C(=O)Cc2cc(NC(=O)Cc3cn(C)c4ccccc34)ccc2O[C@@H]1CN(C)Cc1ccccc1`, the Tm shift activity was inactive: 0.45% [at 42 µM].
The value for `COc1cccc(CNC(=O)C2(C)CCCCN2C)c1` (centres undefined) was inactive: -0.044%; that for `CCN1CCc2c(sc(NC(=O)c3ccc(S(=O)(=O)N(CC)c4ccccc4)cc3)c2C(N)=O)C1` was inactive: -0.12%; that for `Cc1nn(-c2ccccc2)c(Cl)c1/C=N/NC(=O)c1cccnc1` was inactive: -0.238%.
On to `CNC[C@H]1Oc2ccc(NC(=O)Nc3ccc(OC)cc3)cc2C(=O)N([C@H](C)CO)C[C@@H]1C`, for which the Tm shift activity is inactive: -0.083% [at 42 µM].
The value for `O=C(C[C@H]1C[C@@H]2c3cc(NC(=O)Nc4ccc(C(F)(F)F)cc4)ccc3O[C@@H]2[C@@H](CO)O1)NCC1CC1` was inactive: -0.161% [at 10 µM].
For the compound `CCCCNC(=O)c1onc(CSc2ccc(C(C)C)cc2)c1C(=O)O`, the Tm shift activity is inactive: 0.765% [at 5 µM].
The figure for `C=C(C1=CCN(S(=O)(=O)C(C)(C)C)[C@H]1CCO)c1ccccc1` is inactive: -0.093%; for `Cc1nn(C)cc1NC(=O)C[C@H]1CC[C@@H]2[C@@H](COc3ccc(NC(=O)NC(C)C)cc3C(=O)N2C)O1` it is inactive: -0.291%.
The figure for `CC(C)(C)NC(=O)CN(C(=O)CNS(=O)(=O)c1ccc(Cl)cc1)c1ccc2c(c1)OCCO2` is inactive: -0.101%; for `O=C(C[C@@H]1C=C[C@H](NC(=O)c2cccc(F)c2)[C@H](CO)O1)NCc1ccccc1` it is inactive: -0.119%.
The figure for `COCC(=O)N1[C@H](CO)[C@H]2c3ccccc3NC[C@H]21` is inactive: -0.063%; for `CC(=O)Nc1cccc(C(=O)N2CCC(n3nccc3NC(=O)CC(C)C)CC2)c1` it is inactive: 0.588%; for `O=C(c1ccccc1F)N1CC(=O)N2[C@H](C1)[C@H](c1ccc(-c3ccc(F)cc3)cc1)[C@@H]2CO` it is inactive: 0.218% [at 42 µM].
Consider `CC(=O)N1c2ccc(S(=O)(=O)N3CCC(C(=O)NCc4ccc(F)cc4)CC3)cc2CC1C` (centres undefined), for which the Tm shift activity was inactive: -0.179%.
The figure for `O=C(OCC(=O)c1cccs1)c1cccc(C(=O)OCC(=O)c2cccs2)n1` is inactive: -0.182%; for `CO[C@H]1CN(C)C(=O)c2ccc(NS(=O)(=O)c3ccc(Cl)cc3)cc2OC[C@@H](C)N(C(=O)NC(C)C)C[C@H]1C` it is inactive: -0.141% [at 42 µM]; for `CNC[C@H]1Oc2ccc(NC(=O)Cc3cn(C)c4ccccc34)cc2C(=O)N([C@H](C)CO)C[C@H]1C` it is inactive: -0.055% [at 42 µM].
The value for `C[C@H](CO)N1C[C@H](C)[C@H](CN(C)S(=O)(=O)c2ccc(F)cc2)OCc2cnnn2CCCC1=O` was inactive: 0.216% [at 42 µM]; that for `O=C1C2C(C(=O)N1CCc1ccccc1)C1C=CC2C12CC2` (centres undefined) was inactive: -0.247%; that for `COc1ccc2c3c([nH]c2c1)[C@H](CO)N(C(C)=O)CC31CN(C(=O)c2ccc3c(c2)OCO3)C1` was inactive: -0.297%.
Regarding `C[C@H]1CN([C@@H](C)CO)S(=O)(=O)c2ccc(C#Cc3ccccc3F)cc2O[C@H]1CN(C)C(=O)Cc1cccnc1`, the Tm shift activity is inactive: 0.492% [at 42 µM].
Take `CNC[C@@H]1Oc2c(NS(=O)(=O)c3ccc(OC)cc3)cccc2C(=O)N([C@@H](C)CO)C[C@@H]1C`: the Tm shift activity is inactive: -0.136%.
The value for `O=C(C[C@@H]1CC[C@H](NC(=O)c2ccc3c(c2)OCO3)[C@H](CO)O1)NCc1ccc(Oc2ccccc2)cc1` was inactive: -0.218% [at 42 µM]; that for `CC1(C(=O)NS(=O)(=O)c2cccc(Cl)c2)CCN1C(=O)Cc1ccc(-c2ccccc2)cc1` (centres undefined) was inactive: 0.77% [at 5 µM].
As for `C[C@@H]1CN([C@@H](C)CO)C(=O)CCCn2nncc2CO[C@H]1CN(C)Cc1ccccc1C(=O)O`, the Tm shift activity is inactive: -0.141% [at 42 µM].
The value for `O=C(COc1ccccc1)NCC(=O)NC1CCCCC1` was inactive: 0.061%; that for `O=C(CNc1ccccc1OC(F)F)N1CCc2ccccc21` was inactive: 0.054%.
The figure for `COc1cc(C(=O)NC(=S)Nc2ccccc2[N+](=O)[O-])cc(OC)c1OC` is inactive: -0.198% [at 19.5 µM]; for `CCS(=O)(=O)N1CC(=O)N2[C@H](CO)[C@@H](c3ccc(-c4ccccc4F)cc3)[C@@H]2C1` it is inactive: -0.064%.
As for `C[C@@H]1CN([C@H](C)CO)S(=O)(=O)c2ccc(-c3cncnc3)cc2O[C@@H]1CN(C)C(=O)CN(C)C`, the Tm shift activity is inactive: 0.231%.

The values are drawn from PubChem BioAssay AID687022 (Broad Institute, 2013).
